Experiment in all cases: Agar dilution on enriched GC agar; resistance determinants by microarray.
Compound in experiment [1]: CN(C)[C@@H]1C(O)=C(C(N)=O)C(=O)[C@@]2(O)C(O)=C3C(=O)c4c(O)cccc4[C@@](C)(O)[C@H]3C[C@@H]12 [tetracycline]
Compound in experiment [2]: CO/N=C(\C(=O)N[C@@H]1C(=O)N2C(C(=O)O)=C(CSc3nc(=O)c(O)nn3C)CS[C@H]12)c1csc(N)n1 [ceftriaxone]
Compound in experiment [3]: CC[C@H]1OC(=O)[C@H](C)[C@@H](O[C@H]2C[C@@](C)(OC)[C@@H](O)[C@H](C)O2)[C@H](C)[C@@H](O[C@@H]2O[C@H](C)C[C@H](N(C)C)[C@H]2O)[C@](C)(O)C[C@@H](C)CN(C)[C@H](C)[C@@H](O)[C@]1(C)O [azithromycin]
Compound in experiment [4]: CN[C@@H]1[C@H](O)[C@H](NC)[C@H]2O[C@@]3(O)C(=O)C[C@@H](C)O[C@H]3O[C@@H]2[C@H]1O [spectinomycin]
Compound in experiment [5]: CC1(C)S[C@@H]2[C@H](NC(=O)Cc3ccccc3)C(=O)N2[C@H]1C(=O)O [benzylpenicillin]

MIC of clinical N. gonorrhoeae isolates (2015-2017) by agar dilution on GC agar with 1% IsoVitaleX (ranges not stated); higher = less susceptible. No active / inactive call per row; the paper counts benzylpenicillin above 1 and ceftriaxone above 0.125 mg/L as resistant (EUCAST). The method is stated for benzylpenicillin and ceftriaxone and assumed for the other drugs. '<=' is inferred from pile-ups at the end values. Isolates are numbered anew. Bounds are passed on as bounds.

As for “Neisseria gonorrhoeae isolate 324 (blaTEM plasmid: no, gyrA: Phe91, Asn95, mtrR promoter: -35delA, parC: Arg87, Glu91, penA: ins345Asp, ponA: Pro421, porB: wild type, rpsJ: Met57, tetM plasmid: no)”, the MIC (in general, the lowest concentration found to suppress growth) amounted to 1 µg/mL in experiment [1]; 0.015 µg/mL in experiment [2]; 0.5 µg/mL in experiment [3]; 16 µg/mL in experiment [4]; 0.5 µg/mL in experiment [5].

For the test system “Neisseria gonorrhoeae isolate 296 (blaTEM plasmid: no, gyrA: wild type, mtrR promoter: wild type, parC: wild type, penA: wild type, ponA: wild type, porB: wild type, rpsJ: wild type, tetM plasmid: yes)”, the MIC is 16 µg/mL in experiment [1]; at most 0.002 µg/mL in experiment [2]; 0.004 µg/mL in experiment [3]; 32 µg/mL in experiment [4]; at most 0.015 µg/mL in experiment [5].

With “Neisseria gonorrhoeae isolate 437 (blaTEM plasmid: no, gyrA: Thr91, Gly95, mtrR promoter: wild type, parC: wild type, penA: ins345Asp, ponA: wild type, porB: wild type, rpsJ: wild type, tetM plasmid: no)”, the minimal inhibitory concentration (MIC) in experiment [1] was 0.12 µg/mL; in experiment [2], at most 0.002 µg/mL; in experiment [3], 0.06 µg/mL; in experiment [4], 8 µg/mL; in experiment [5], 0.12 µg/mL.

With “Neisseria gonorrhoeae isolate 486 (blaTEM plasmid: no, gyrA: wild type, mtrR promoter: wild type, parC: wild type, penA: wild type, ponA: wild type, porB: wild type, rpsJ: wild type, tetM plasmid: no)”, the minimal inhibitory concentration (MIC) was 0.25 µg/mL in experiment [1]; at most 0.002 µg/mL in experiment [2]; 0.06 µg/mL in experiment [3]; 32 µg/mL in experiment [4]; 0.03 µg/mL in experiment [5].

As for “Neisseria gonorrhoeae isolate 85 (blaTEM plasmid: no, gyrA: Phe91, Asn95, mtrR promoter: -35delA, parC: Arg87, Glu91, penA: ins345Asp, ponA: wild type, porB: Gly120, Gly121, rpsJ: Met57, tetM plasmid: yes)”, the MIC in experiment [1] was 16 µg/mL; in experiment [2], 0.008 µg/mL; in experiment [3], 0.12 µg/mL; in experiment [4], 32 µg/mL; in experiment [5] it was 0.25 µg/mL.

On to “Neisseria gonorrhoeae isolate 371 (blaTEM plasmid: no, gyrA: Phe91, Gly95, mtrR promoter: wild type, parC: Arg87, Glu91, penA: ins345Asp, ponA: Pro421, porB: Asp120, Ala121, rpsJ: Met57, tetM plasmid: no)”, for which the MIC in experiment [1] was 1 µg/mL; in experiment [2], 0.004 µg/mL; in experiment [3], 0.008 µg/mL; in experiment [4] it was 32 µg/mL; in experiment [5] it was 0.25 µg/mL.

Take “Neisseria gonorrhoeae isolate 126 (blaTEM plasmid: no, gyrA: wild type, mtrR promoter: wild type, parC: Arg87, Glu91, penA: ins345Asp, ponA: wild type, porB: wild type, rpsJ: Met57, tetM plasmid: no)”: the MIC was 2 µg/mL in experiment [1]; at most 0.002 µg/mL in experiment [2]; 0.12 µg/mL in experiment [3]; 16 µg/mL in experiment [4]; 0.03 µg/mL in experiment [5].

As for “Neisseria gonorrhoeae isolate 28 (blaTEM plasmid: no, gyrA: Phe91, Gly95, mtrR promoter: wild type, parC: wild type, penA: ins345Asp, ponA: Pro421, porB: Asp120, Ala121, rpsJ: Met57, tetM plasmid: no)”, the minimal inhibitory concentration (MIC) was found to be 2 µg/mL in experiment [1]; 0.015 µg/mL in experiment [2]; 0.03 µg/mL in experiment [3]; 32 µg/mL in experiment [4]; 1 µg/mL in experiment [5].

As for “Neisseria gonorrhoeae isolate 118 (blaTEM plasmid: no, gyrA: Thr91, Gly95, mtrR promoter: wild type, parC: wild type, penA: wild type, ponA: wild type, porB: Asn120, Asp121, rpsJ: wild type, tetM plasmid: no)”, the MIC was 2 µg/mL in experiment [1]; 0.008 µg/mL in experiment [2]; 0.5 µg/mL in experiment [3]; 16 µg/mL in experiment [4]; 0.06 µg/mL in experiment [5].

Regarding “Neisseria gonorrhoeae isolate 12 (blaTEM plasmid: no, gyrA: wild type, mtrR promoter: wild type, parC: wild type, penA: ins345Asp, ponA: wild type, porB: wild type, rpsJ: Met57, tetM plasmid: no)”, the MIC is 0.5 µg/mL in experiment [1]; at most 0.002 µg/mL in experiment [2]; 0.06 µg/mL in experiment [3]; 16 µg/mL in experiment [4]; 0.12 µg/mL in experiment [5].

As for “Neisseria gonorrhoeae isolate 351 (blaTEM plasmid: no, gyrA: Thr91, Gly95, mtrR promoter: wild type, parC: wild type, penA: ins345Asp, ponA: wild type, porB: wild type, rpsJ: wild type, tetM plasmid: no)”, the MIC in experiment [1] turned out to be 0.06 µg/mL; in experiment [2], 0.004 µg/mL; in experiment [3], 0.06 µg/mL; in experiment [4], 32 µg/mL; in experiment [5], 0.12 µg/mL.

With “Neisseria gonorrhoeae isolate 71 (blaTEM plasmid: no, gyrA: Phe91, Gly95, mtrR promoter: wild type, parC: Arg87, Glu91, penA: ins345Asp, ponA: Pro421, porB: Asp120, Ala121, rpsJ: Met57, tetM plasmid: no)”, the MIC in experiment [1] is 0.5 µg/mL; in experiment [2], at most 0.002 µg/mL; in experiment [3], 0.015 µg/mL; in experiment [4], 32 µg/mL; in experiment [5], 0.5 µg/mL.

“Neisseria gonorrhoeae isolate 261 (blaTEM plasmid: no, gyrA: Thr91, Gly95, mtrR promoter: wild type, parC: wild type, penA: ins345Asp, ponA: wild type, porB: wild type, rpsJ: Met57, tetM plasmid: no)”: the MIC is 0.5 µg/mL in experiment [1]; at most 0.002 µg/mL in experiment [2]; 0.03 µg/mL in experiment [3]; 32 µg/mL in experiment [4]; 0.06 µg/mL in experiment [5].

Turning to “Neisseria gonorrhoeae isolate 499 (blaTEM plasmid: no, gyrA: wild type, mtrR promoter: wild type, parC: wild type, penA: wild type, ponA: wild type, porB: wild type, rpsJ: wild type, tetM plasmid: no)”, the MIC in experiment [1] was 0.06 µg/mL; in experiment [2], at most 0.002 µg/mL; in experiment [3] it was 0.12 µg/mL; in experiment [4] it was 16 µg/mL; in experiment [5] it was 0.12 µg/mL.

As to “Neisseria gonorrhoeae isolate 144 (blaTEM plasmid: no, gyrA: Thr91, Gly95, mtrR promoter: wild type, parC: Arg87, Glu91, penA: ins345Asp, ponA: wild type, porB: wild type, rpsJ: wild type, tetM plasmid: no)”, the MIC came out at 0.5 µg/mL in experiment [1]; 0.015 µg/mL in experiment [2]; 0.12 µg/mL in experiment [3]; 16 µg/mL in experiment [4]; 0.12 µg/mL in experiment [5].

As to “Neisseria gonorrhoeae isolate 421 (blaTEM plasmid: no, gyrA: Phe91, Gly95, mtrR promoter: -35delA, parC: Arg87, Glu91, penA: ins345Asp, ponA: Pro421, porB: Lys 120, Gly121, rpsJ: Met57, tetM plasmid: no)”, the MIC in experiment [1] is 0.5 µg/mL; in experiment [2] it was at most 0.002 µg/mL; in experiment [3], 0.015 µg/mL; in experiment [4] it was 32 µg/mL; in experiment [5], 0.25 µg/mL.

Turning to “Neisseria gonorrhoeae isolate 354 (blaTEM plasmid: no, gyrA: wild type, mtrR promoter: wild type, parC: wild type, penA: wild type, ponA: wild type, porB: wild type, rpsJ: wild type, tetM plasmid: no)”, the MIC was 0.5 µg/mL in experiment [1]; at most 0.002 µg/mL in experiment [2]; 0.015 µg/mL in experiment [3]; 32 µg/mL in experiment [4]; at most 0.015 µg/mL in experiment [5].

“Neisseria gonorrhoeae isolate 176 (blaTEM plasmid: no, gyrA: wild type, mtrR promoter: wild type, parC: wild type, penA: ins345Asp, ponA: wild type, porB: wild type, rpsJ: wild type, tetM plasmid: no)”: the MIC in experiment [1] was 0.5 µg/mL; in experiment [2], at most 0.002 µg/mL; in experiment [3], 0.03 µg/mL; in experiment [4], 32 µg/mL; in experiment [5], at most 0.015 µg/mL.

Consider “Neisseria gonorrhoeae isolate 358 (blaTEM plasmid: no, gyrA: wild type, mtrR promoter: wild type, parC: wild type, penA: ins345Asp, ponA: wild type, porB: wild type, rpsJ: wild type, tetM plasmid: no)”, for which the MIC was determined as 0.5 µg/mL in experiment [1]; 0.008 µg/mL in experiment [2]; 0.015 µg/mL in experiment [3]; 32 µg/mL in experiment [4]; 0.12 µg/mL in experiment [5].

On to “Neisseria gonorrhoeae isolate 423 (blaTEM plasmid: no, gyrA: Phe91, Gly95, mtrR promoter: -35delA, parC: Arg87, Glu91, penA: ins345Asp, ponA: Pro421, porB: Lys 120, Gly121, rpsJ: Met57, tetM plasmid: no)”, for which the minimum inhibitory concentration (MIC) in experiment [1] amounted to 2 µg/mL; in experiment [2] it was 0.06 µg/mL; in experiment [3], 0.06 µg/mL; in experiment [4], 32 µg/mL; in experiment [5], 1 µg/mL.

As to “Neisseria gonorrhoeae isolate 396 (blaTEM plasmid: no, gyrA: wild type, mtrR promoter: wild type, parC: wild type, penA: wild type, ponA: wild type, porB: wild type, rpsJ: wild type, tetM plasmid: no)”, the MIC in experiment [1] is 0.25 µg/mL; in experiment [2], at most 0.002 µg/mL; in experiment [3], 0.25 µg/mL; in experiment [4] it was 16 µg/mL; in experiment [5] it was at most 0.015 µg/mL.

As to “Neisseria gonorrhoeae isolate 211 (blaTEM plasmid: no, gyrA: wild type, mtrR promoter: wild type, parC: wild type, penA: wild type, ponA: wild type, porB: wild type, rpsJ: wild type, tetM plasmid: no)”, the MIC in experiment [1] was 0.25 µg/mL; in experiment [2] it was at most 0.002 µg/mL; in experiment [3], 0.03 µg/mL; in experiment [4], 32 µg/mL; in experiment [5], 0.03 µg/mL.

Turning to “Neisseria gonorrhoeae isolate 448 (blaTEM plasmid: no, gyrA: wild type, mtrR promoter: wild type, parC: Ser87, Gly 91, penA: wild type, ponA: wild type, porB: wild type, rpsJ: wild type, tetM plasmid: no)”, the MIC in experiment [1] was 0.25 µg/mL; in experiment [2], 0.008 µg/mL; in experiment [3], 0.06 µg/mL; in experiment [4], 16 µg/mL; in experiment [5] it was 0.06 µg/mL.

On to “Neisseria gonorrhoeae isolate 133 (blaTEM plasmid: no, gyrA: wild type, mtrR promoter: wild type, parC: wild type, penA: ins345Asp, ponA: wild type, porB: wild type, rpsJ: wild type, tetM plasmid: no)”, for which the MIC turned out to be 0.12 µg/mL in experiment [1]; 0.008 µg/mL in experiment [2]; 0.06 µg/mL in experiment [3]; 16 µg/mL in experiment [4]; 0.06 µg/mL in experiment [5].

For “Neisseria gonorrhoeae isolate 380 (blaTEM plasmid: no, gyrA: Phe91, Gly95, mtrR promoter: -35delA, parC: Arg87, Glu91, penA: ins345Asp, ponA: Pro421, porB: Lys 120, Gly121, rpsJ: Met57, tetM plasmid: no)”, the MIC was determined as 2 µg/mL in experiment [1]; 0.015 µg/mL in experiment [2]; 1 µg/mL in experiment [3]; 16 µg/mL in experiment [4]; 0.5 µg/mL in experiment [5].

Source of the values: the supplement of paper PMC6657886.
